Patent publication US20240018206A1 (BEIJING VDJBIO, published 2024)
Like-named read-outs stand apart in the source and are kept apart here.

T1: IL-1 receptor (IL-1R1), the receptor of the SPR assay (UniProt P14778 18-332, limits assumed)
T1 construct: also called fixed receptor
T1 sequence (looked up): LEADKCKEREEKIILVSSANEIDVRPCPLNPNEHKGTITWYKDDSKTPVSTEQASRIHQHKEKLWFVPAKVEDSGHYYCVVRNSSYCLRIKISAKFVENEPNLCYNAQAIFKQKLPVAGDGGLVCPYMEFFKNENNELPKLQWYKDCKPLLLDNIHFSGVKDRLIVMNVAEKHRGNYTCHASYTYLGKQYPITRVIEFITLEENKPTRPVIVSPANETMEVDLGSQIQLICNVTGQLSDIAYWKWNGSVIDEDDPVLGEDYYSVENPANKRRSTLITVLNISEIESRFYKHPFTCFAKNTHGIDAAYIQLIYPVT

T2: IL-1 receptor (IL-1R1) on A375.s2 cells (UniProt P14778 18-569, limits assumed)
T2 sequence (looked up): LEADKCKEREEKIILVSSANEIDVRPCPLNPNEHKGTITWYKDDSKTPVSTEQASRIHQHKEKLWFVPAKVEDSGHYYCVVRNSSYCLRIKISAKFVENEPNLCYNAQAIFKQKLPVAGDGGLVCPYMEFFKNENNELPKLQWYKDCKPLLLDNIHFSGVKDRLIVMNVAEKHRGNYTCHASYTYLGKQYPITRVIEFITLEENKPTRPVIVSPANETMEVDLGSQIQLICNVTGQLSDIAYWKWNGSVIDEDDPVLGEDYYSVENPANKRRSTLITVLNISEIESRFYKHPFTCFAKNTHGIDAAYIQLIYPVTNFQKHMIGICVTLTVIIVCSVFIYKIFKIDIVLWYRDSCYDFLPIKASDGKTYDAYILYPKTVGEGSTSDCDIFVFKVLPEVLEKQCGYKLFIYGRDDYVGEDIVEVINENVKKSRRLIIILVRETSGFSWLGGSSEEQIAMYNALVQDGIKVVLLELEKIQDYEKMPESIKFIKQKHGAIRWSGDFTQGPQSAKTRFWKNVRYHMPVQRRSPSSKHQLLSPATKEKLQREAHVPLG

B1: IL-1RN-Fc (wild-type IL-1RN fused to hIgG4 Fc S228P through the linker …) (Fc fusion)
chain: not shown
notes: also called wild-type IL-1RN-Fc
B2: IL-1RN D74N-Fc (with linker …) (Fc fusion)
chain: not shown
notes: It may be this molecule or the linker-free one; also called D74N (w/linker); IL-1RN D74N-hIgG4 Fc S228P
B3: IL-1RN R5T R14T D74N-Fc (Fc fusion)
chain: RPSGTKSSKMQAFTIWDVNQKTFYLRNNQLVAGYLQGPNVNLEEKIDVVPIEPHALFLGIHGGKMCLSCVKSGNETRLQLEAVNITDLSENRKQDKRFAFIRSDSGPTTSFESAACPGWFLCTAMEADQPVSLTNMPDEGVMVTKFYFQEDEGGGGSGGGGSGGGGS[letters of human IgG4 Fc with S228P (EU numbers) omitted]

What was measured:
[1] = molecular target: T1, IL-1 receptor (IL-1R1), the receptor of …; assay: SPR, BIAcore 3000, 25 C, analyte 1.2 to 100 nM
Method: All SPR measurements are performed on a BIAcore 3000 instrument (GE Biosciences, Piscataway, N.J.). BIAcore software-BIAcore 3000 control software V3.2 is used to operate and control the BIAcore 3000 instrument. SPR data from the BIAcore 3000 instrument are analyzed using evaluation software V4.1, and the data are plotted using Graph Pad Prism software version 5. […] The fusion protein shown is used as a ligand for constructing the reference channel of a chip. The analyte IL-1RN-Fc bound to the fixed receptor is measured, with a concentration of 1.2 to 100 nM (3-fold dilution). Each sample is injected at a flow rate of 30 μL/min for 3 minutes to bind to the fusion protein bound to the chip. Next, the binding buffer without analyte is passed through the chip at the same flow rate to dissociate the bound analyte. 500 s later, the regeneration solution (1M formic acid) is injected to remove the residual binding analyte. The data are analyzed using the Kinetics Guidelines and the manual fitting program attached to BiaEvaluation software V4.1.

[2] = molecular target: T2, IL-1 receptor (IL-1R1) on A375.s2 cells; assay: cell-based or functional assay
[3] = molecular target: T2, IL-1 receptor (IL-1R1) on A375.s2 cells; assay: cell-based or functional assay; remark: listed apart in the source
[4] = molecular target: T2, IL-1 receptor (IL-1R1) on A375.s2 cells; assay: cell-based or functional assay; remark: listed apart in the source

Binder | Kd [1] [nM] | Relative Affinity [1] | koff [1] [s⁻¹] | kon [1] [M⁻¹ s⁻¹] | IC50(µg/ml), inhibition of IL-1β induced A375.s2 apoptosis (MTS, 490 nM) [2] [µg/mL] | IC50(µg/ml), inhibition of IL-1β induced A375.s2 apoptosis (MTS, 490 nM) [3] [µg/mL] | biological activity relative to D74N (w/o linker) [4] [fold]
B1 | 1.17 | 1 fold (reference IL-1RN-Fc) | 0.000182 | 155000 |  |  | 
B2 | 0.11 | 10.7 fold (reference IL-1RN-Fc) | 2.06e-05 | 188000 | 1.55 | 1.39 | 3
B3 | 0.091 | 12.9 fold (reference IL-1RN-Fc) | 1.75e-05 | 192000 |  | 1.26 | 
